# Data: the supplement of paper PMC10126150
# Sequences with one replicate were seen in a single cluster, so their values are uncertain.
# Tested on: ATP
# Test: switch fluorescence ratio, 500 uM ATP over buffer (Cy3 cluster intensity, sum of 5 cycles each) (fold (ratio)); higher = stronger signal-on switching upon ATP binding; sequences stand for … in TCGTCGGCAGCGTCAGATGTGTATAAGAGACAGTTTTTTTTTTTTTTTTTTTTTTTTT…TC
# Conditions: aptamer strand: ATP DNA aptamer (quencher-CACCTGGGGGAGTATTGCGGAGGAAGG + anchor), 100 nM annealed; ATP concentration: 500 uM; one replicate
# Procedure, shortened: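 For every switch-domain sequence, the fluorescence ratio is the mean of per-cluster values, each being summed target-cycle Cy3 intensity over summed buffer-cycle Cy3 intensity. Clusters outside 100-1000 RFU were excluded. On a modified Illumina MiSeq flow-cell, the Cy3-labelled switching-strand clusters were annealed to 100 nM quencher-labelled ATP aptamer, imaged in selection buffer and then after 15 min with 500 uM ATP at 22 °C. Five such cycles were run, with NaOH stripping and re-annealing between them.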
# 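Note: ATP exposure 15 min at 22 °C before imaging.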
row,Sequence,switch fluorescence ratio
1,CCACGGGTA,1.03
2,CCACGGTCGA,1.06
3,CCACGGTTCT,1.02
4,CCACGTACCT,1.6
5,CCACTAACCA,1.13
6,CCACTGCAGC,3.9
7,CCACTGGAAT,1.25
8,CCACTGGATA,1.04
9,CCACTTCGCG,1.11
10,CCACTTTTGC,1.03
11,CCAGAATAGA,0.99
12,CCAGAATGTA,0.969
13,CCAGAATTCC,1.05
14,CCAGACCACG,1.06
15,CCAGAGAAAC,1.09
16,CCAGATCGTA,1.01
17,CCAGATGGGT,1.01
18,CCAGATTGAA,0.952
19,CCAGCATCTA,1.18
20,CCAGCGAATT,2.41
21,CCAGCGCTCG,1.07
22,CCAGCGCTGA,1.04
23,CCAGCTAATA,1.85
24,CCAGCTCACG,1.04
25,CCAGGA,1.03
26,CCAGGACTCT,0.999

row,Sequence,switch fluorescence ratio
1,CCAGGCCAAG,1.01
2,CCAGGCCCAG,1.07
3,CCAGGCGCTT,1.15
4,CCAGGGAATA,1.02
5,CCAGGGCTTG,1.01
6,CCAGGGGGA,3.4
7,CCAGGGTGAT,1.5
8,CCAGGTCCAG,1.06
9,CCAGTGCCCA,1.01
10,CCAGTGCTCG,1.03
11,CCAGTGCTG,0.997
12,CCAGTGGATT,1.02
13,CCAGTTGTC,1.04
14,CCATAAGGCT,1.04
15,CCATAGGTGT,2.39
16,CCATATGTA,0.999
17,CCATCACCT,1.19
18,CCATCCCGGA,0.988
19,CCATCGGGGC,1.13
20,CCATCTAAGG,0.967
21,CCATCTTAC,1.27
22,CCATGAGAAC,1.01
23,CCATGAGAGG,1
24,CCATGCAGGA,0.991
25,CCATGCAGGG,1.05
26,CCATGCTGTT,0.974

row,Sequence,switch fluorescence ratio
1,CCATGGTAGA,0.993
2,CCATGTATGC,0.958
3,CCATGTTGGT,0.989
4,CCATTAAGA,1.02
5,CCATTCTACT,0.993
6,CCATTGATTT,1
7,CCATTGGGCT,1.05
8,CCATTGTCCG,0.966
9,CCATTGTCGA,1.01
10,CCATTTATAT,1
11,CCATTTTATA,0.97
12,CCCAACAGGG,1.25
13,CCCAACATAA,1.05
14,CCCAATCGGC,1.24
15,CCCAATCTGA,1.11
16,CCCAATTTC,1.62
17,CCCACCGGTG,2.84
18,CCCACGTCTA,1.33
19,CCCAGAAATA,1.19
20,CCCAGCTGAT,1.19
21,CCCAGCTTGG,1.07
22,CCCAGTCGGA,0.984
23,CCCATATAGG,1.02
24,CCCATGAACG,1.04
25,CCCATGCTGC,1.2
26,CCCATTATTT,0.957

row,Sequence,switch fluorescence ratio
1,CCCATTTCTT,0.982
2,CCCCAAGGCG,3.11
3,CCCCACACGC,2.12
4,CCCCAGCGCC,1.82
5,CCCCATGCGC,1.17
6,CCCCCACGGA,1.61
7,CCCCCGGGCT,0.989
8,CCCCGAATAA,3.57
9,CCCCGACGAT,2.47
10,CCCCGCGGAT,3.84
11,CCCCGGAAAT,0.981
12,CCCCGGATCA,1.06
13,CCCCGGCAGA,3.07
14,CCCCGGTAGA,1.14
15,CCCCGTGTCT,1.16
16,CCCCTCAA,2.6
17,CCCCTCCCCG,1.65
18,CCCCTGTTGG,1.2
19,CCCCTTAAGT,1.04
20,CCCCTTATGC,1.37
21,CCCCTTGGAG,1.26
22,CCCCTTTCCC,1.05
23,CCCGAAATGG,5.54
24,CCCGAAGTTA,1.14
25,CCCGACGGGG,1.19
26,CCCGAGTCGG,1.05

row,Sequence,switch fluorescence ratio
1,CCCGATCGG,1
2,CCCGATGTCT,0.971
3,CCCGATTTGT,1.01
4,CCCGCCAACG,1.73
5,CCCGCCAGAA,1.57
6,CCCGGACGAC,2.41
7,CCCGGATTTT,0.989
8,CCCGGCGAGG,1.02
9,CCCGGCGGCG,1.01
10,CCCGGGCGGT,1.01
11,CCCGGGCTT,1.02
12,CCCGGGGGAG,1.01
13,CCCGGTAGCA,1.25
14,CCCGGTTGTC,1.11
15,CCCGTAGGGG,0.957
16,CCCGTCCTTC,1.1
17,CCCGTGCTTT,1.06
18,CCCGTTAAGG,1.05
19,CCCTAATGGG,0.979
20,CCCTAGGACC,1.02
21,CCCTATTGAG,0.998
22,CCCTCAAAGT,3
23,CCCTCTAGGA,0.969
24,CCCTGCCAT,1.4
25,CCCTGGGGCT,0.973
26,CCCTGGGGT,1.02

row,Sequence,switch fluorescence ratio
1,CCCTGTTAGA,1
2,CCCTTAGCTT,1.1
3,CCCTTCCTAG,1.96
4,CCCTTGAGTT,0.989
5,CCCTTTGATG,0.998
6,CCCTTTTCCC,1.04
7,CCCTTTTTTA,1.35
8,CCGAAACGCC,2.28
9,CCGAAATTAA,1.68
10,CCGAAGGAAT,1.18
11,CCGAAGGTAG,1.12
12,CCGAAGTTGG,1.8
13,CCGACATTCC,2.85
14,CCGAGCCGAT,1.58
15,CCGAGCCTGT,1.59
16,CCGAGCTTGG,1.24
17,CCGAGGGTTC,1.66
18,CCGAGTAAGA,3.49
19,CCGAGTACCT,1.23
20,CCGAGTGCGG,1.19
21,CCGAGTGGAT,1.26
22,CCGATAAACA,1.08
23,CCGATAGTTT,1.44
24,CCGATGCCAG,1.29
25,CCGATTAATC,1.34
26,CCGATTCGGA,0.981

row,Sequence,switch fluorescence ratio
1,CCGCAACGGA,2.12
2,CCGCACACCA,2.39
3,CCGCACCATA,3.51
4,CCGCACGATT,2.47
5,CCGCAGGGGG,1.36
6,CCGCAGTGTT,3.58
7,CCGCATCCGT,1.73
8,CCGCCGGTCC,2.73
9,CCGCCTCAAG,4.1
10,CCGCCTTATG,1.06
11,CCGCGCGCGC,1.03
12,CCGCGGACCT,1.11
13,CCGCGGAGCT,1.18
14,CCGCGGCTG,1.34
15,CCGCGTCTCT,2.36
16,CCGCTCTTGA,1.4
17,CCGCTTGCCA,1.23
18,CCGGAAAATT,1.04
19,CCGGAGAAAT,2.99
20,CCGGAGTGTA,2.42
21,CCGGATATCG,0.997
22,CCGGATCGTC,1.09
23,CCGGATGGTT,1.39
24,CCGGATTTAT,1.03
25,CCGGCACTCT,1.22
26,CCGGCCATGT,1.05

row,Sequence,switch fluorescence ratio
1,CCGGCCGGCG,1.02
2,CCGGCTAGA,1.08
3,CCGGGCCGTG,1.02
4,CCGGGCGTAA,5.75
5,CCGGGGCCGG,1.01
6,CCGGGGGGTC,0.997
7,CCGGGGTTGC,1.07
8,CCGGGTCACA,1.19
9,CCGGGTCCCA,1.1
10,CCGGGTGTTC,1.64
11,CCGGTATCAC,1.79
12,CCGGTATTAA,1.14
13,CCGGTATTTA,1.01
14,CCGGTCTCTG,0.906
15,CCGGTTAGGC,1.09
16,CCGGTTCATA,1.06
17,CCGGTTTCTG,1.04
18,CCGTACGGTG,1.05
19,CCGTATACTT,2.09
